Source: the supplement of paper PMC4967469
Lines with a small IC50 respond at low doses; where the fit passes the top or lowest dose, that dose stands as a limit. The AUC spans the tested range (256-fold, ending at the top dose) of the same fit: 1 means no effect, lower means more sensitive. For part of these data: A top dose marked as inferred is not printed in the source and was worked back from the curve model.

What was measured:
Test in all cases: Viability of human cancer cell lines after 72 h of drug (GDSC screen)
[1] = compound: CC(=O)Nc1cccc(-n2c(=O)n(C3CC3)c(=O)c3c(Nc4ccc(I)cc4F)n(C)c(=O)c(C)c32)c1 [Trametinib]; details: top dose 1 µM
Protocol: (§1)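 Human cancer cell lines in 384-well plates, medium with 10% serum, drug for 72 h over a 256-fold dose range (nine 2-fold or five 4-fold steps up to the top dose). Adherent lines were fixed and stained with the nucleic acid dye Syto60, suspension lines read with resazurin; signal relative to control wells, capped at 0 and 100%. One two-parameter sigmoid per drug and line, fitted in a mixed model over all curves with the slope shared within a line.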

[2] = compound: O=C(NC(COc1ccc2[nH]c(=O)[nH]c2c1)c1ccccc1)c1cccn(Cc2ccc(F)c(F)c2)c1=O [KIN001-244]; details: top dose 20 µM; top dose inferred
Protocol: as §1

[3] = compound: CCN1CCN(Cc2ccc(NC(=O)c3ccc(C)c(/C=C/c4cnc5[nH]ccc5c4OC)c3)cc2C(F)(F)F)CC1 [HG-6-64-1]; details: top dose 5.12 µM; top dose inferred
Protocol: as §1

[4] = compound: CCc1cncnc1N1CCN(Cc2nc3ccc(C(F)(F)F)cc3[nH]2)CC1 [PF-4708671]; details: top dose 10 µM; top dose inferred
Protocol: as §1

[5] = compound: CCNC(=O)C[C@@H]1N=C(c2ccc(Cl)cc2)c2cc(OC)ccc2-n2c(C)nnc21 [I-BET-762]; details: top dose 20 µM; top dose inferred
Protocol: as §1

[6] = compound: COc1cc2nccc(Oc3ccc(NC(=O)Nc4cc(C)on4)c(Cl)c3)c2cc1OC [AV-951]; details: top dose 0.128 µM; top dose inferred
Protocol: as §1

| Cell Line | AUC [1] | IC50 [1] [nM] | AUC [2] | IC50 [2] [nM] | AUC [3] | IC50 [3] [nM] | AUC [4] | IC50 [4] [nM] | AUC [5] | IC50 [5] [nM] | AUC [6] | IC50 [6] [nM] |
| --- | --- | --- | --- | --- | --- | --- | --- | --- | --- | --- | --- | --- |
| ASH-3 (thyroid, adherent) | 0.181 | 6.84 | 0.97 | > 20000 | 0.904 | > 5120 | 0.987 | > 10000 | 0.988 | > 20000 | 0.978 | > 128 |
| AsPC-1 (pancreas, adherent) | 0.317 | 13.2 | 0.852 | > 20000 | 0.748 | 2820 | 0.935 | > 10000 | 0.875 | > 20000 | 0.951 | > 128 |
| BCPAP (thyroid, adherent) | 0.31 | 19.5 | 0.784 | 7640 | 0.502 | 324 | 0.968 | > 10000 | 0.928 | > 20000 | 0.987 | > 128 |
| BEN (non-small cell lung carcinoma, adherent) | 0.984 | > 1000 | 0.914 | > 20000 | 0.9 | > 5120 | 0.818 | 6710 | 0.933 | > 20000 | 0.985 | > 128 |
| BFTC-905 (bladder, adherent) | 0.138 | 5.85 | 0.893 | 18000 | 0.731 | 1290 | 0.958 | > 10000 | 0.932 | > 20000 | 0.99 | > 128 |
| G-MEL (melanoma, adherent) | 0.029 | < 3.91 | 0.895 | > 20000 | 0.627 | 714 | – | – | 0.959 | > 20000 | 0.986 | > 128 |
| HCC-78 (lung adenocarcinoma, adherent) | 0.637 | 160 | 0.918 | > 20000 | 0.976 | > 5120 | – | – | 0.983 | > 20000 | 0.97 | > 128 |
| HSC-2 (head and neck, adherent) | 0.743 | 289 | 0.966 | > 20000 | 0.714 | 1220 | – | – | 0.971 | > 20000 | 0.987 | > 128 |
| IGR-37 (melanoma, adherent) | 0.031 | < 3.91 | 0.78 | 7480 | 0.768 | 1760 | 0.986 | > 10000 | 0.957 | > 20000 | – | – |
| LN-405 (glioma, adherent) | 0.926 | > 1000 | 0.925 | > 20000 | 0.774 | 2550 | – | – | 0.957 | > 20000 | 0.973 | > 128 |
| LoVo (large intestine, adherent) | 0.464 | 49.8 | 0.882 | > 20000 | 0.552 | 445 | – | – | 0.978 | > 20000 | 0.985 | > 128 |
| MDA-MB-330 (breast, adherent) | 0.967 | > 1000 | 0.917 | > 20000 | 0.798 | 2850 | – | – | 0.838 | 16300 | 0.986 | > 128 |
| MDA-MB-415 (breast, adherent) | 0.874 | > 1000 | 0.901 | > 20000 | 0.858 | > 5120 | – | – | 0.983 | > 20000 | 0.983 | > 128 |
| MDA-MB-453 (breast, adherent) | 0.916 | > 1000 | 0.845 | 16900 | 0.968 | > 5120 | – | – | 0.652 | 3470 | 0.985 | > 128 |
| NCI-H838 (lung adenocarcinoma, adherent) | 0.855 | 848 | 0.905 | > 20000 | 0.814 | 2940 | – | – | 0.954 | > 20000 | 0.986 | > 128 |
| RMG-I (ovary, adherent) | 0.251 | 10.5 | 0.83 | 15500 | 0.858 | > 5120 | – | – | 0.837 | 16700 | 0.979 | > 128 |
| SBC-3 (small cell lung carcinoma, adherent) | 0.879 | 868 | 0.876 | 16800 | 0.796 | 2160 | 0.968 | > 10000 | 0.616 | 2520 | – | – |
| SK-OV-3 (ovary, adherent) | 0.82 | 775 | 0.844 | > 20000 | 0.664 | 1030 | – | – | 0.79 | 11600 | 0.969 | > 128 |
| SNU-398 (liver, adherent) | 0.814 | 572 | 0.715 | 5200 | 0.326 | 102 | – | – | 0.89 | > 20000 | 0.984 | > 128 |
| SiHa (cervix, adherent) | 0.912 | > 1000 | 0.987 | > 20000 | 0.819 | 3490 | – | – | 0.987 | > 20000 | 0.987 | > 128 |
